Measured values published in paper PMC4336329 (PLoS ONE, 2015).
The campaign covered roughly 310,000 compounds. About 14,000 (4.5%) showed an effect of 50% or more. Effects have a minus sign here. This is one part of the list. Where a SMILES comes first, the peptide text is derived from it. The star is where a group is joined. OBn = c1ccc(CO*)cc1

Molecular target: human ether-à-go-go-related gene (hERG) potassium channel (human, UniProt Q12809)
Assay: primary screen, population patch clamp on CHO cells stably expressing hERG
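Also: peak tail current of the secondary pulse compared with the same well before compound.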

Chain of human ether-à-go-go-related gene (hERG) potassium channel (Q12809 whole entry, looked up): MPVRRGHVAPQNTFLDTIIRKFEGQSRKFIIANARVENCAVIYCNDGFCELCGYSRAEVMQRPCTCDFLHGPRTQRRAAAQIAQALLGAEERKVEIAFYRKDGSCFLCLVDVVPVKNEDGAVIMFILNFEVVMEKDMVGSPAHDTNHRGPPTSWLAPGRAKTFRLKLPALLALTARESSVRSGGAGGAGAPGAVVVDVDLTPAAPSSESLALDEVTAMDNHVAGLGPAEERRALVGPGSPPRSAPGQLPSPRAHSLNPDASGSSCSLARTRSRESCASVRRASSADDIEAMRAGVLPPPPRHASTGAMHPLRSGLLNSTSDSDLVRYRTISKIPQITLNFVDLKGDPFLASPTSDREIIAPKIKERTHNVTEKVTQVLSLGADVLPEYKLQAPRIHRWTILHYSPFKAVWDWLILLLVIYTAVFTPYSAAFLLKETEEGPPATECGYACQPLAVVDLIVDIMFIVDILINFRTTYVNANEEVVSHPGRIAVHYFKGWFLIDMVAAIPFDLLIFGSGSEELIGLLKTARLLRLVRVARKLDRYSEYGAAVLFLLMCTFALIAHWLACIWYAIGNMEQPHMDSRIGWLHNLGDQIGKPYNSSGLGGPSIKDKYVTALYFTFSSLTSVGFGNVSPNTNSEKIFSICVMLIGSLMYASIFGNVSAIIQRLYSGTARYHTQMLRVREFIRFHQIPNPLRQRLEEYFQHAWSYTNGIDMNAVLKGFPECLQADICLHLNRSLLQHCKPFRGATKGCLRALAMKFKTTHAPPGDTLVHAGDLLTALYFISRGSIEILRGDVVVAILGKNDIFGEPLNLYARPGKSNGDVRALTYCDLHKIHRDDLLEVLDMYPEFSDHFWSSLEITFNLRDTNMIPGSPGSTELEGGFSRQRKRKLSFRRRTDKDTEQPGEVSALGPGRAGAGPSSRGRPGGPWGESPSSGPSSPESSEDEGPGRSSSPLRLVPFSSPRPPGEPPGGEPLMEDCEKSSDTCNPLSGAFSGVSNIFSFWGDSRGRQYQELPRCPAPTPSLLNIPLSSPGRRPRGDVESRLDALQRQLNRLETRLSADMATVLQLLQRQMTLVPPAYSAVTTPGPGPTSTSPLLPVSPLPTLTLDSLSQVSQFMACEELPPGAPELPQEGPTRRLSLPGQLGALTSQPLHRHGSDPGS

Structure (SMILES) | hERG current change (%, negative = inhibition) at 10uM
CCc1nnc(NC(=O)c2ccc(-c3ccc([N+](=O)[O-])cc3Cl)o2)s1 | 12.6%
Cc1ccc(CN2CCSc3ccc(C(=O)NCc4cccnc4)cc32)cc1 | -2.7%
COc1ccc(OC)c(NC(=O)NCCc2c[nH]c3ccccc23)c1 | 1.79%
O=C(c1cc(-c2cccc(O)c2)on1)N1CCN(C(c2ccccc2)c2ccccc2)CC1 | 10.8%
COc1ccc(OC)c(S(=O)(=O)NCCc2csc(-c3cccnc3)n2)c1 | 4.92%
Cc1ccc(N(CC(=O)Nc2ccc(-c3nc4ccc(C)cc4s3)cc2)S(C)(=O)=O)cc1 | 19.3%
COC(=O)c1cc(C)cc(=O)o1 | 0.996%
COc1cc(OC)c(OC)cc1CN1CCCC(C(=O)c2sccc2C)C1 (stereo not shown) | -63.4%
CC(=O)N=c1sc2cc(C)ccc2n1C | 4.8%
Cc1ccc(C2C(C(=O)c3sc(C)nc3C)=C(O)C(=O)N2CCN(C)C)o1 (stereo not shown) | 0.959%
COc1ccc(S(=O)(=O)N2CCCOC2CNC(=O)C(=O)NCCCn2ccnc2)cc1OC (stereo not shown) | 11.5%
CCC(C)C(N)C(=O)NC(CCC(=O)OCc1ccccc1)C(N)=O.Cl (stereo not shown) (H-Ile-Glu(OBn)-NH2; configuration not given here) | 10.2%
CN(C)/C(=N\S(=O)(=O)c1ccccc1)c1ccc(F)cc1 | 18.9%
Cc1ccccc1NC(=O)Nc1cnccn1 | -27.3%
CN(CC(=O)NCCc1ccc(S(N)(=O)=O)cc1)Cc1c(F)cccc1Cl | 6.04%
Cc1nc2c(C(=O)O)cnn2c(C)c1Cc1ccccc1F | -1.35%
COc1nnc(-c2ccc(N3CCOCC3)c(NC(C)=O)c2)c2ccccc12 | -1.4%
Cc1cc(CN(C)C(=O)CC2C(=O)NCCN2Cc2c(F)cccc2Cl)on1 (stereo not shown) | 22.3%
Cn1c(=O)c2sccc2n2c(CCCC(=O)NCc3cccnc3)nnc12 | 22.8%
OC(CCc1ccncc1)COc1ccccc1 (stereo not shown) | 3.52%
Cc1ccc(NC(=O)CN2C(=O)CCSc3ccc(S(=O)(=O)N4CCCC4)cc32)cc1 | 19.6%
Cc1ccc(S(=O)(=O)Oc2ccc(C(c3c(C)[nH][nH]c3=O)c3c(C)[nH][nH]c3=O)cc2)cc1 | -1.83%

Structure (SMILES) | hERG current change (%, negative = inhibition) at 10uM
Cc1nn(-c2ccccc2)c(Cl)c1C(=O)NNC(=O)c1ccncc1 | 3.87%
CCc1cc(C(=O)N=Nc2c(O)[nH]c3ccc([N+](=O)[O-])cc23)c2ccccc2n1 | 3.87%
CN1CCOCCOCCN(C)C1=O | 8.49%
CSc1nc(C)cc(Oc2ccc(OCCOc3ccccc3)nn2)n1 | -23.2%
O=C(NCc1ccccc1)c1onc(CSc2ccncc2)c1C(=O)NCc1ccccc1 | 6.77%
CN1CCN(CCCNC(=O)Nc2ccc([N+](=O)[O-])cc2)CC1 | -7.46%
Cc1cccnc1NC(=O)C1COc2ccccc2O1 (stereo not shown) | 32.5%
OCCC1CCCCN1CC(O)COCc1ccc(Cl)cc1 (stereo not shown) | -7.29%
Cc1n[nH]c(C)c1S(=O)(=O)N1CCCC(C(=O)Nc2ccc(Br)cc2)C1 (stereo not shown) | 15%
CCCCn1c(N)c(N(CC(C)C)C(=O)CCNC(=O)c2ccccc2Cl)c(=O)[nH]c1=O | -2.37%
Oc1ccc(C[C@H]2CNCCN2CCCCC2CCCCC2)cc1 | -26.1%
Cc1ccc(C)c(N(C(=O)c2csnn2)C(C(=O)NC2CCCCC2)c2ccncc2)c1 (stereo not shown) | 10.8%
COc1ccc(C2=NOC(C(=O)NCCCN3CCOCC3)C2)cc1 (stereo not shown) | 11.3%
COC(=O)c1c(C)noc1-c1snnc1C | 19.5%
COc1ccc(CN(C)Cc2cc(=O)oc3cc(C)c(C(C)C)cc23)cc1OC | 8.72%
O=C(/C=C/c1ccccc1)N/C(=C/c1ccccc1)C(=O)Nc1cccc(C(=O)O)c1 | 12.6%
CCOC(=O)CSc1nc2c(c(=O)[nH]c(=O)n2C)n1C/C=C(/C)Cl | -43.7%
COc1ccccc1OCC(=O)Nc1ccc(S(=O)(=O)N2CCOCC2)cc1 | -6.44%
COc1cccc(-c2nnc(NC(=O)c3cccs3)s2)c1 | 23%
Cc1[nH]nc2c1C(Cc1ccccc1)C(C#N)=C(N)O2 (stereo not shown) | -5.54%
O=C(NCCCCc1ccccc1)c1ccccc1Cl | -9.21%
Cc1ccc(CN(C(=O)c2ccc([N+](=O)[O-])cc2)C2CCS(=O)(=O)C2)o1 (stereo not shown) | -38.8%

Structure (SMILES) | hERG current change (%, negative = inhibition) at 10uM
CCCNc1c(NS(=O)(=O)c2ccc3c(c2)CCCC3)c(=O)oc2ccccc12 | 8.8%
CCN(CC(=O)NCc1ccc(Cl)cc1)C(=O)c1ccc(S(=O)(=O)NCc2ccco2)cc1 | -54.9%
COCCNC(=S)N=Nc1c(O)[nH]c2ccc([N+](=O)[O-])cc12 | -2.41%
CCCCn1c(N)c(N(CC(C)C)C(=O)c2cccc(S(=O)(=O)N3CCCCCC3)c2)c(=O)[nH]c1=O | -0.0958%
CC(C(=O)NCC1CCCO1)c1ccc([N+](=O)[O-])cc1 (stereo not shown) | -7.86%
CSC[C@H](NC(=O)Cc1c(C)c2cc3c(C)c(C)oc3cc2oc1=O)C(=O)N[C@@H](Cc1ccccc1)C(=O)O | 1.76%
O=C(NCc1ccccc1)C1=C[C@@H](c2coc3ccccc3c2=O)C[C@@H](OCCCCO)O1 | -83.1%
COc1cccc(N2C(=O)NC(=O)/C(=C/c3ccc4c(c3)Cc3ccccc3-4)C2=O)c1 | 25%
O=C(CSCc1ccccc1)Nc1ccc(F)cc1F | 3.55%
COP(=O)(OC)C(Nc1ccc(Cl)cc1)c1ccccc1 (stereo not shown) | 6.08%
COc1cc(C(=O)OCn2nnc3ccccc3c2=O)cc(OC)c1OC | 4.44%
CC(C)(C)c1ccc(OCCON2C(=O)CCC2=O)c(Cl)c1 | -15.2%
COc1ccccc1N=Nc1c(C)[nH]n(-c2ccccc2)c1=O | 18%
O=C(Nc1cccc(C(F)(F)F)c1)c1cccnc1NCCc1ccccc1 | 7.2%
O=C(O)C[C@]1(C(=O)Nc2ccc(F)cc2)CC(/C=C/c2ccccc2)=NO1 | 10.4%
COc1cc(/C=C2\N=C(C)OC2=O)cc(OC)c1OC | 15.8%
O=c1ccc(-c2ccc(S(=O)(=O)Nc3ccccc3Cl)o2)n[nH]1 | 9.79%
CCCCC(O)(CCN1CCOCC1)c1ccc(Cl)cc1.Cl (stereo not shown) | -66.5%
CC(C)(C)Sc1ccccc1S(=O)(=O)C(C)(C)C | -6.66%
O=c1c2ccccc2nc(-c2cccs2)n1-c1cccc2ccccc12 | 5.68%
Cc1cc(N(C)/N=C/c2ccccc2O)nc(-c2ccccc2O)n1 | 24.3%
CC(C)(C)c1ccc(C(=O)N2CCNC(=O)C2CC(=O)Nc2ccc(F)cc2)cc1 (stereo not shown) | 13.9%

Structure (SMILES) | hERG current change (%, negative = inhibition) at 10uM
CC(C)C[C@H](NC(=O)c1nc[nH]c1C(=O)NC1CC[NH2+]CC1)C(=O)OCc1ccccc1.[Cl-] | 15.7%
CSc1nc(C)cc(C)c1S(=O)(=O)c1ccccc1C | 7.41%
CN(C)c1ccc(P(=O)(Nc2ccc([N+](=O)[O-])cc2)N2CCOCC2)c(NC(=O)c2cccs2)c1 (stereo not shown) | 16.9%
CC(C)NC(=O)COC(=O)CNC(=O)c1cc(Cl)cc([N+](=O)[O-])c1 | -0.0659%
C/C(=N\NC(=O)C1(C)CC1(Br)Br)c1ccc(NC(=O)C2CCC2)cc1 (stereo not shown) | 7.51%
COc1ccc(N=Nc2c(N)n[nH]c2N)cc1 | 11.9%
COC(=O)c1sc(N)nc1C(C)(C)C | 3.77%
CC(=O)c1sc2c(c1OC(=O)c1ccc(Cl)cc1Cl)c(=O)n(-c1ccccc1)c(=S)n2-c1ccccc1 | 19.1%
Cn1c(Cn2c(=O)sc3ccccc32)nnc1SCC(=O)N1CCCCCC1 | -3.94%
C#CCOc1c(Br)cc(/C=N\NC(=O)CN2CCOCC2)cc1OCC | -5.33%
C[C@H](NC(=O)c1nc[nH]c1C(=O)N[C@H](C)c1ccccc1)C(=O)OC(C)(C)C | -4.07%
COc1ccc(-c2nn(-c3ccccc3)cc2C(=O)N(C)C)cc1 | -7.44%
O=C(CNC(=O)c1ccco1)N/N=C/c1ccc(O)c([N+](=O)[O-])c1 | 29.1%
CCN(CC)S(=O)(=O)c1cccc(C(=O)NC(Cc2c[nH]c3ccccc23)c2nnc3n2CCC3)c1 (stereo not shown) | 7.8%
COc1ccc(CNC(=O)CN(Cc2ccccc2OC)C(=O)c2csnn2)cc1 | -29%
N#CC1=C(O)CCCn2c1nc1ccccc1c2=O | 11.7%
CC(C)(C)OC(=O)N1CCC(c2cc(=O)n3[nH]cc(C(=O)NC4CCCC4)c3n2)CC1 | 18.3%
COC(=O)COc1ccc(S(=O)(=O)N2CCN(c3ccc(F)cc3)CC2)cc1 | -25.5%
COc1ccc(-c2cc3nc4n(c(=O)c3s2)CCCCC4)cc1 | -5.46%
